According to the supplement of paper PMC10126150:
Sequences with one replicate were seen in a single cluster, so their values are uncertain.

System: ATP
Assay: switch fluorescence ratio, 500 uM ATP over buffer (Cy3 cluster intensity, sum of 5 cycles each) (fold (ratio)); higher = stronger signal-on switching upon ATP binding; sequences stand for … in TCGTCGGCAGCGTCAGATGTGTATAAGAGACAGTTTTTTTTTTTTTTTTTTTTTTTTT…TC
Details: aptamer strand: ATP DNA aptamer (quencher-CACCTGGGGGAGTATTGCGGAGGAAGG + anchor), 100 nM annealed; ATP concentration: 500 uM; one replicate
Procedure, shortened: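 Values give the fluorescence ratio for each switch-domain sequence, averaged from per-cluster ratios of summed target-cycle to summed buffer-cycle Cy3 intensity. The Cy3-labelled switching-strand clusters sat on a modified Illumina MiSeq flow-cell, were annealed to 100 nM quencher-labelled ATP aptamer, and were imaged in selection buffer, then after 15 min with 500 uM ATP at 22 °C. Five cycles ran with NaOH stripping and re-annealing between them, and clusters outside 100-1000 RFU were excluded.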
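Note: ATP exposure 15 min at 22 °C before imaging.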

| Sequence | switch fluorescence ratio |
| --- | --- |
| AATAGCAGAC | 1.54 |
| AATAGCCAAA | 0.963 |
| AATAGCCGTG | 0.99 |
| AATAGGAACC | 0.997 |
| AATAGGGAAC | 1.04 |
| AATAGTCTTA | 0.993 |
| AATAGTGGAA | 0.999 |
| AATAGTTGTT | 0.979 |
| AATATATCTA | 0.999 |
| AATATCTAGG | 0.983 |
| AATATGCGGT | 0.948 |
| AATATTAATT | 1.01 |
| AATATTGCGT | 0.98 |
| AATCAACACG | 1.05 |
| AATCAACCGC | 1.14 |
| AATCACACC | 1.09 |
| AATCAGATTC | 1 |
| AATCATCGGA | 0.993 |
| AATCATGCAC | 1.12 |
| AATCATTCGT | 1.02 |
| AATCCACATT | 1.07 |
| AATCCAGATA | 1.03 |
| AATCCAGTTG | 1.01 |
| AATCCATTCG | 1.03 |
| AATCCCAGTG | 2.1 |

| Sequence | switch fluorescence ratio |
| --- | --- |
| AATCCGCCAG | 1.69 |
| AATCCGTCGG | 1.03 |
| AATCCTTTTG | 0.974 |
| AATCGAAATG | 0.974 |
| AATCGACTGC | 1.02 |
| AATCGATTCG | 1 |
| AATCGCAAGA | 1.07 |
| AATCGCACTC | 1.56 |
| AATCGCGAGA | 0.977 |
| AATCGCGCCT | 1.05 |
| AATCGGAC | 1.07 |
| AATCGGAGTA | 0.971 |
| AATCGGCCCA | 1.39 |
| AATCGGGGAA | 0.996 |
| AATCGGGGG | 1.16 |
| AATCGGTCCT | 1.06 |
| AATCGTCTAA | 1.02 |
| AATCTACGG | 1.07 |
| AATCTAGGCG | 1.08 |
| AATCTATTT | 1.02 |
| AATCTCTGTG | 0.963 |
| AATCTGCTAG | 1.08 |
| AATCTGGTCT | 0.994 |
| AATCTGTAC | 1.02 |
| AATCTTGTCT | 0.953 |

| Sequence | switch fluorescence ratio |
| --- | --- |
| AATGAAATTT | 1.04 |
| AATGAAGAGC | 1.12 |
| AATGACACTT | 1.02 |
| AATGACAGCG | 1.05 |
| AATGACTAGG | 0.985 |
| AATGAGCGCA | 1.04 |
| AATGAGGACA | 0.987 |
| AATGATAGTC | 1.02 |
| AATGATTAGC | 1.02 |
| AATGCACCG | 1.08 |
| AATGCAGACT | 1.03 |
| AATGCAGGGG | 1.11 |
| AATGCAGTTA | 0.993 |
| AATGCATTTA | 0.978 |
| AATGCCAAAG | 0.992 |
| AATGCCTGGA | 1.08 |
| AATGCGGTTA | 1.02 |
| AATGCGTCAC | 0.991 |
| AATGCTCCTC | 1.25 |
| AATGGAGTAG | 1.03 |
| AATGGAGTTG | 1.05 |
| AATGGATCTC | 0.978 |
| AATGGCGTGT | 1.03 |
| AATGGCTTGT | 0.953 |
| AATGGGATTT | 0.967 |

| Sequence | switch fluorescence ratio |
| --- | --- |
| AATGGGGTGA | 0.983 |
| AATGGTAAGT | 0.994 |
| AATGGTACTT | 1.09 |
| AATGGTGAGC | 1.01 |
| AATGGTGTTG | 1.01 |
| AATGTACCAA | 1.06 |
| AATGTAGATT | 0.958 |
| AATGTAGGAA | 0.994 |
| AATGTATAAG | 1.05 |
| AATGTCCCCG | 1.06 |
| AATGTGCACG | 1.02 |
| AATGTGTTCT | 0.952 |
| AATGTTCAGA | 0.989 |
| AATGTTGTAA | 1.03 |
| AATGTTTACT | 1.02 |
| AATTAAAAGG | 1.02 |
| AATTAAAGGC | 1.25 |
| AATTAATGAG | 1.08 |
| AATTACGAGT | 1.05 |
| AATTACGCCG | 1.06 |
| AATTACGCCT | 1.12 |
| AATTACTCAA | 1.01 |
| AATTAGAGTT | 0.99 |
| AATTAGTGAC | 1.07 |
| AATTATCTAG | 0.927 |

| Sequence | switch fluorescence ratio |
| --- | --- |
| AATTATTGAT | 1.01 |
| AATTCAACTT | 0.966 |
| AATTCAGAGT | 0.947 |
| AATTCATCGT | 0.956 |
| AATTCCCGGT | 1.03 |
| AATTCCCTTA | 0.976 |
| AATTCGCCGC | 1.12 |
| AATTCTGTGG | 0.991 |
| AATTCTTATG | 0.98 |
| AATTGAATTC | 1.02 |
| AATTGACCAA | 1.01 |
| AATTGACTCA | 1.01 |
| AATTGAGAG | 0.959 |
| AATTGCCACA | 1.03 |
| AATTGGGGAA | 0.974 |
| AATTGTCCCC | 1.03 |
| AATTGTGCGG | 0.991 |
| AATTGTTCTC | 0.993 |
| AATTTAAGAG | 0.939 |
| AATTTAATCA | 0.987 |
| AATTTATGCC | 0.983 |
| AATTTATTT | 0.984 |
| AATTTCCGCA | 1.56 |
| AATTTCGTAC | 1.01 |
| AATTTCGTCA | 1.03 |

| Sequence | switch fluorescence ratio |
| --- | --- |
| AATTTCGTTA | 1.01 |
| AATTTGCAGA | 0.963 |
| AATTTGTG | 1.01 |
| AATTTTTCA | 0.98 |
| ACAAAAAAG | 1.07 |
| ACAAAACACC | 1.3 |
| ACAAAATCGC | 1.07 |
| ACAAAGCACG | 1.16 |
| ACAAAGGGTA | 1.08 |
| ACAACAGATA | 0.98 |
| ACAACGGAAA | 1 |
| ACAACGTAAA | 1.02 |
| ACAACTCAAT | 1.09 |
| ACAACTGAAT | 1.02 |
| ACAACTGTGC | 0.973 |
| ACAAGAGAAT | 1.02 |
| ACAAGATCCA | 1.01 |
| ACAAGATCCT | 1.01 |
| ACAAGATTTC | 0.98 |
| ACAAGCACAG | 1.25 |
| ACAAGGCGAC | 1.06 |
| ACAAGTACAC | 1.38 |
| ACAAGTGTCA | 0.988 |
| ACAAGTTCAA | 0.985 |
| ACAATCCCAA | 1.11 |

| Sequence | switch fluorescence ratio |
| --- | --- |
| ACAATGACGA | 1.14 |
| ACAATGTTCT | 1.03 |
| ACAATTCTGA | 0.979 |
| ACAATTGCAG | 1.01 |
| ACAATTGTTT | 0.941 |
| ACAATTTTGG | 0.992 |
| ACACAGCATT | 1.2 |
| ACACAGCGAA | 1.19 |
| ACACAGGACG | 1.1 |
| ACACAGTTAT | 1.02 |
| ACACATCTAC | 1.23 |
| ACACATTTGT | 1.04 |
| ACACCACGCG | 1.33 |
| ACACCCCTGC | 1.17 |
| ACACCGAAGA | 1.07 |
| ACACCGGAC | 1.73 |
| ACACCTATGG | 0.984 |
| ACACCTCGTC | 1.03 |
| ACACGAAT | 1.03 |
| ACACGAGGTT | 0.994 |
| ACACGAGTAG | 1.03 |
| ACACGGCCCT | 1.07 |
| ACACGGGCAT | 1.03 |
| ACACTCAGGC | 1.11 |
| ACACTCTATC | 1.1 |

| Sequence | switch fluorescence ratio |
| --- | --- |
| ACACTCTGAT | 0.975 |
| ACACTGCAGT | 1.05 |
| ACACTGGGTA | 1.02 |
| ACACTTTTGG | 1.03 |
| ACAGAAATAG | 1.01 |
| ACAGAGGAGA | 1.02 |
| ACAGAGTCTT | 0.996 |
| ACAGATTGTT | 0.958 |
| ACAGCACTGA | 1.39 |
| ACAGCATTTC | 1.42 |
| ACAGCCATCC | 1.32 |
| ACAGCCGTGG | 1.09 |
| ACAGCGGGTC | 1 |
| ACAGCTCCTA | 1.08 |
| ACAGCTGGAA | 1.05 |
| ACAGCTGTAT | 1.04 |
| ACAGGATATT | 0.986 |
| ACAGGCCTGG | 1.04 |
| ACAGGCTACG | 1.06 |
| ACAGGCTCTT | 1.05 |
| ACAGGGCCCT | 1.04 |
| ACAGGGCGG | 1.02 |
| ACAGGTCGGC | 0.983 |
| ACAGGTGATA | 1.56 |
| ACAGGTGGTG | 1.06 |
